# From PubChem BioAssay AID686978 (National Center for Advancing Translational Sciences (NCATS), 2013)
# Hit rate of the full screen: of about 420,000 compounds, about 64,000 (15%) were called active. Inconclusive means that the source gave no clear call. Such entries were picked first, then a sample of the others. The call rests on the fitted dose curve; in most records, active means well fitted inhibition curve with a large enough effect; inconclusive means small, poorly fitted or top-dose-only effect; inactive means flat fitted curve, though single readings scatter. Potencies of inconclusive entries are left out as doubtful fits.
# Test: qHTS for Inhibitors of human tyrosyl-DNA phosphodiesterase 1 (TDP1): qHTS in cells in absence of CPT; further: nearly all actives have a fitted effect of over 55% in size
# Details: DT40 Tdp1-/- hTDP1 cells, no CPT, ATP luminescence, 48 h; activity change, negative = growth inhibition: at 46.2 µM (top of the series)
# Summary of the method: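 DT40 Tdp1-/-;hTDP1 cells, no CPT (DMSO vehicle only), 400 cells/well; compounds pin-transferred; ≥48 hr, 37 °C; CellTiter-Glo 30 min RT dark, luminescence read.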
# On the % scale 0 is the no-effect control and ±100 the full control effect; potency means the concentration at half of the fitted maximal effect; tags describe the fitted curve by direction and shape.
Structure (SMILES),Potency,"activity change, negative = growth inhibition"
S=C(c1nc2ccccc2[nH]1)N1CCOCC1,"inconclusive [inhibitor, single point]",–
Cc1ccc(S(=O)(=O)N(CC(=O)N2CCCCC2)c2cccc(C)c2)cc1,"inconclusive [inhibitor, single point]",–
Cc1cccc(CS(=O)(=O)Cc2ccc(C(=O)NC3CCCCCC3)o2)c1,"inconclusive [inhibitor, single point]",–
COc1ccccc1CNc1cc(-c2ccccc2)ccc1OC,–,inactive: -28.5%
COc1cc(Cl)c(S(=O)(=O)N2CC(C)OC(C)C2)cc1Cl (configuration not stated),"inconclusive [inhibitor, single point]",–
Cc1cc2c(cc1C)NC(CC(=O)Nc1ccccc1)C(=O)N2 (configuration not stated),active: 25.9 µM,–
Cc1cc(OC(C)C(=O)N(Cc2cccs2)C2CCS(=O)(=O)C2)ccc1Cl (configuration not stated),"inconclusive [inhibitor, partial curve]",–
Cn1c(=O)cc(OCCCC(=O)N2CCN(c3ccccn3)CC2)c2ccccc21,"inconclusive [inhibitor, partial curve, poor fit]",–
COC(=O)c1scc(C)c1NC(=O)/C=C/C(=O)O,–,inactive: -17.5%
CC(=O)c1sc2c(c1OC(=O)c1ccc(Cl)cc1)c(=O)n(-c1ccccc1)c(=S)n2-c1ccccc1,"inconclusive [inhibitor, single point]",–
CCc1ccc(C(=O)NN=C2CCCCCC2)s1,–,inactive: 5.13%
Cc1ccc(O)c(C(=O)/C=C/c2ccc3c(c2)OCCO3)c1,active: 16.4 µM,–
CCN(Cc1ccccc1)C(=O)Cn1cc(S(=O)(=O)Cc2cccc(Cl)c2)c2ccccc21,"inconclusive [inhibitor, single point]",–
CCC(c1nnnn1C1CCCCC1)N(Cc1ccco1)Cc1cc2ccc(OC)cc2[nH]c1=O (configuration not stated),active: 16.4 µM,–
Cc1ccc(Cn2cc(CN(C)C3CN(Cc4cn(Cc5ccc(C)cc5)nn4)S(=O)(=O)C3)nn2)cc1 (configuration not stated),"inconclusive [inhibitor, partial curve]",–
COc1ccc2cc(OCC(=O)NNC(=O)Nc3ccc(C(C)=O)cc3)ccc2c1,–,inconclusive: -31.5% [inhibitor]
Cc1ccc(O)c(NC(=O)c2ccc(Br)c(S(=O)(=O)N3CCCCC3)c2)c1,active: 5.17 µM,–
CC(C)C[C@H]1CNC(=O)C(=O)N1C[C@H](C)NC(=O)Cc1ccccc1,–,inactive: -2.8%
CCC(C)NC(=O)CSc1c2c(nc3ccccc13)CCCC2 (configuration not stated),"inconclusive [inhibitor, single point]",–
O=C(CCCn1c(=O)c2cccn2c2ccc(F)cc21)NCc1ccc(Cl)cc1,active: 20.6 µM,–
CCc1ccc(NC(=O)C(=O)NCC(c2cccnc2)N2CCN(Cc3ccccc3)CC2)cc1 (configuration not stated),active: 8.2 µM,–
CCCCCCCC(O)CC(CC1CCCCC1)C(=O)NN (configuration not stated),"inconclusive [inhibitor, single point]",–
NC(=O)CSCc1ccc(Br)cc1,"inconclusive [inhibitor, full curve]",–
O=C(NC1CCCCC1)c1cccc(Cn2cc(Cl)cn2)c1,–,inconclusive: -33.5% [inhibitor]

Structure (SMILES),Potency,"activity change, negative = growth inhibition"
O=C(O)c1ccc(N2CC3CC(C2)c2cccc(=O)n2C3)c(NC(=S)Nc2ccc(Br)cc2)c1 (configuration not stated),"inconclusive [inhibitor, partial curve]",–
CN(c1ccc(C(=O)Nc2ccc3c(c2)OCO3)cc1)S(C)(=O)=O,"inconclusive [inhibitor, partial curve]",–
Cc1cc2oc(=O)cc(CN3CCCc4ccccc43)c2cc1C,"inconclusive [inhibitor, partial curve]",–
O=C(N/N=C/c1cn(-c2ccccc2)nc1-c1cccnc1)c1ccccc1,active: 23.1 µM,–
CC1CCN(C(=O)CSc2c(C(C)C)cnc3c2c(=O)n(C)c(=O)n3C)CC1,active: 16.4 µM,–
CC(C)C[C@H]1CNC(=S)N1C[C@H]1CCCN1C[C@H](CC(C)C)N1C[C@H](Cc2ccc(O)cc2)N(CC2CCCCCC2)C1=S,active: 8.2 µM,–
COC(=O)CC1Oc2ccccc2-n2cc(-c3ccccc3)nc21 (configuration not stated),active: 20.6 µM,–
CCCS(=O)(=O)N1CCCC(C(=O)NCCCN(CC)c2cccc(C)c2)C1 (configuration not stated),"inconclusive [inhibitor, single point]",–
COc1ccc(Oc2c(O)c3ccccc3n(C)c2=O)cc1,"inconclusive [inhibitor, single point]",–
CC(=O)NC1=NC(=O)CS1,–,inactive: -2.82%
Cc1nn(-c2ccc(Cl)cc2)c2[nH]c(=O)c(CNCc3ccc4c(c3)OCO4)cc12,active: 18.4 µM,–
Cc1cc2c(c(=O)n1CCc1ccccc1)C(C(C)C)C(C#N)=C(N)O2 (configuration not stated),"inconclusive [inhibitor, partial curve]",–
CC(NC(=O)c1ccc([N+](=O)[O-])o1)C1CC2CCC1C2 (configuration not stated),"inconclusive [inhibitor, single point]",–
CNc1nc(Nc2ccc(C(=O)OC)cc2)c2sccc2n1,active: 14.6 µM,–
CC(C)COC(=O)NCCCOC(=O)Nc1ccccc1,"inconclusive [inhibitor, partial curve, poor fit]",–
C/C=C(\C)CN1CCN(c2ccccc2F)CC1,–,inactive: -3.33%
O=C(COc1ccc(F)cc1)Nc1nc(-c2cccnc2)cs1,"inconclusive [inhibitor, partial curve]",–
Cc1cc(C)c2[nH]c(=O)c(CN(Cc3ccccc3)C(=S)NCCCN(C)C)cc2c1,active: 16.4 µM,–
CN1CCN(C2=Cc3cc(Cl)ccc3Sc3cc(F)ccc32)CC1,active: 29.1 µM,–
CCOc1ccc(CNS(=O)(=O)c2ccc3[nH]c(=O)ccc3c2)cc1,–,inactive: -10.8%
CCCCCCCC(=O)Nc1cc(C(=O)NCc2ccc(C)cc2)ccc1N1CCC2(CC1)CC(c1cccc(Br)c1)=NO2,"inconclusive [inhibitor, single point]",–
Cc1ccc(F)cc1NC(=O)CCC(=O)c1cccs1,–,inactive: 0.231%
Cc1cnc(NS(=O)(=O)c2ccccc2)c(C)n1,–,inactive: 16.1%
